Results as given in PubChem BioAssay AID624255 (Broad Institute, 2012).
Hit rate of the full screen: of about 77,000 compounds, about 4,600 (6%) were called active. The shares of active, inactive and inconclusive entries below differ from those in the screen.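 The calls were made as follows: active = mean inhibition above about 93%, with at least 55% of replicates each passing it (limit read from the data, passing the limit was not always enough); inconclusive = only one of those two conditions holds; inactive = neither condition holds.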

Experiment: T. cruzi intracellular proliferation inhibitors, primary screen, cell-based, beta-gal Tulahuen parasites, NIH3T3 host, luminescence (AID 624255)
Conditions: T. cruzi beta-gal in NIH3T3, GalScreen luminescence, 90 h; at 8.34 µM; stronger effect = higher value
With `O=C(NC1CCCC1)N1CCCCN2[C@H](C1)[C@H](c1ccc(-c3cncnc3)cc1)[C@@H]2CO` the inhibition was inconclusive: 96.4%. With `C[C@@H]1CN([C@@H](C)CO)S(=O)(=O)c2ccc(C#CCN(C)C)cc2O[C@H]1CN(C)C(=O)c1ccccc1F` the inhibition was active: 101%. With `O=S(=O)(c1ccccc1)N1CCCCN2[C@H](C1)[C@H](c1ccc(-c3ccccc3)cc1)[C@@H]2CO` the inhibition was inactive: 94.7%. For `C[C@H](CO)N1C[C@H](C)[C@H](CN(C)S(=O)(=O)c2ccc(Cl)cc2)OCc2cnnn2CCCC1=O`, the inhibition was inconclusive: 111%. With `C[C@H](CO)N1C[C@H](C)[C@H](CN(C)Cc2ccc(Cl)c(Cl)c2)Oc2c(NS(=O)(=O)c3cn(C)cn3)cccc2C1=O` the inhibition was inactive: 45%. In the case of `CCCC(=O)Nc1ccc2c(c1)OC[C@@H](C)NC[C@H](C)[C@H](OC)CN(C)C2=O`, the inhibition is reported as inactive: -4.29%. For `CC(C)NC(=O)N(C)C[C@@H]1Oc2ccc(NC(=O)Cc3cn(C)c4ccccc34)cc2C(=O)N([C@@H](C)CO)C[C@H]1C`, the inhibition was inactive: 7.56%. In the case of `CCC(=O)N1C[C@H]2[C@@H](c3ccccc31)[C@@H](CO)N2Cc1ccccc1OC`, the inhibition is reported as inconclusive: 102%. With `N#C[C@H]1N[C@@H](CO)[C@@H]1c1ccc(C#Cc2ccccc2F)cc1` the inhibition was active: 99.1%. For `C[C@H](CO)N1C[C@H](C)[C@@H](CN(C)C)Oc2ccc(NC(=O)CCCN(C)C)cc2CC1=O`, the inhibition was inactive: 3.44%. For `CO[C@H](CN(C)S(=O)(=O)c1cccc(Cl)c1)[C@H](C)CN([C@H](C)CO)S(=O)(=O)c1ccc(Cl)cc1`, the inhibition was inconclusive: 98.6%. For `C[C@@H]1CN([C@@H](C)CO)C(=O)c2cc(NS(=O)(=O)c3ccc(Cl)cc3)ccc2O[C@@H]1CN(C)S(=O)(=O)c1ccc(Cl)cc1`, the inhibition was inconclusive: 95.8%. For `O=S(=O)(c1ccccc1)N1CC[C@@H]2[C@H](CO)Nc3ccc(C#Cc4cccc(F)c4)cc3[C@@H]21`, the inhibition was inconclusive: 97.8%. In the case of `N#C[C@H]1[C@H](c2ccc(C3=CCCCC3)cc2)[C@@H](CO)N1C(=O)c1cccc(F)c1`, the inhibition is reported as active: 98.1%. For `CN1CCN(C(=O)C[C@@H]2CC[C@H]3[C@H](COc4ccc(NC(=O)C5CCOCC5)cc4C(=O)N3C)O2)CC1`, the inhibition was inactive: 2.15%. For `C[C@@H]1CN([C@@H](C)CO)C(=O)c2cc(C3=CCCCC3)cnc2O[C@@H]1CN(C)Cc1cccc(F)c1`, the inhibition was active: 112%. With `CCC(=O)N1CC[C@@H]2[C@@H](CO)N(C)c3ccc(-c4cccc(OC)c4)cc3[C@@H]21` the inhibition was active: 104%. With `COc1ccccc1-c1ccc2c(c1)O[C@H](CN(C)C(=O)Nc1cccc(F)c1)[C@H](C)CN([C@H](C)CO)S2(=O)=O` the inhibition was inactive: 87.1%. For `N#C[C@@H]1[C@H](c2ccc(C#Cc3cccc(F)c3)cc2)[C@@H](CO)N1C(=O)C1CC1`, the inhibition was inconclusive: 95.7%. In the case of `COc1ccc(NC(=O)Nc2ccc3c(c2)C(=O)N([C@@H](C)CO)C[C@H](C)[C@H](CN(C)C(=O)Cc2ccccc2)OCCCC[C@H](C)O3)cc1`, the inhibition is reported as inconclusive: 103%. In the case of `C[C@@H]1CN([C@H](C)CO)S(=O)(=O)c2ccc(-c3cccc(C#N)c3)cc2O[C@@H]1CN(C)C(=O)Nc1ccccc1F`, the inhibition is reported as inconclusive: 95.8%. For `CC(=O)N1CC[C@@H]2[C@H](CO)Nc3ccc(C#Cc4ccccc4F)cc3[C@@H]21`, the inhibition was inconclusive: 96.3%. For `C[C@@H]1CN([C@H](C)CO)C(=O)c2cccc(NC(=O)Nc3ccc(C(F)(F)F)cc3)c2O[C@H]1CN(C)S(=O)(=O)c1ccc(F)cc1`, the inhibition was inconclusive: 95.6%. For `COc1ccccc1CN1[C@H](CO)[C@H]2c3ccccc3N(C(=O)C3CCCCC3)C[C@H]21`, the inhibition was inactive: 47.8%. With `Cc1ccc(S(=O)(=O)N(C)C[C@H]2OCCCC[C@@H](C)Oc3ccc(NC(=O)Nc4ccccc4)cc3C(=O)N([C@@H](C)CO)C[C@H]2C)cc1` the inhibition was inconclusive: 105%. In the case of `C[C@H](CO)N1C[C@H](C)[C@H](CN(C)Cc2ccc(C(=O)Nc3ccccc3N)cc2)Oc2c(NC(=O)c3ccncc3)cccc2C1=O`, the inhibition is reported as inconclusive: 93.1%. With `C[C@H](CO)N1C[C@H](C)[C@@H](CN(C)Cc2ccc(C(F)(F)F)cc2)OCCCC[C@H](C)Oc2ccc(NC(=O)Nc3ccc(F)cc3)cc2C1=O` the inhibition was inconclusive: 95.8%. In the case of `CN1c2ccc(-c3ccc(F)cc3)cc2[C@H]2[C@H](CCN2C(=O)C2CCOCC2)[C@@H]1CO`, the inhibition is reported as active: 102%. In the case of `C[C@@H]1CN([C@H](C)CO)C(=O)Cc2cc(NC(=O)Nc3ccc(C(F)(F)F)cc3)ccc2O[C@@H]1CN(C)Cc1ccc(C(=O)Nc2ccccc2N)cc1`, the inhibition is reported as inconclusive: 96.2%. With `CO[C@H](CN(C)S(=O)(=O)c1ccc(Cl)cc1)[C@@H](C)CN(Cc1ccccc1Cl)[C@H](C)CO` the inhibition was inconclusive: 96.8%. With `C[C@@H]1CN([C@@H](C)CO)S(=O)(=O)c2ccc(-c3ccccc3)cc2O[C@H]1CN(C)Cc1ccncc1` the inhibition was inconclusive: 65.4%. For `C[C@@H]1CCCCO[C@H](CN(C)C(=O)C2CCCCC2)[C@H](C)CN([C@@H](C)CO)C(=O)c2cc(NS(=O)(=O)c3ccc(Cl)cc3)ccc2O1`, the inhibition was inconclusive: 113%. With `O=C(C[C@H]1C=C[C@@H](NC(=O)c2cccc(F)c2)[C@H](CO)O1)NCc1ccc(Oc2ccccc2)cc1` the inhibition was inactive: 7.72%. In the case of `CC(C)CC#Cc1ccc2c(c1)O[C@@H](CN(C)C(=O)c1cccc(F)c1)[C@@H](C)CN([C@H](C)CO)S2(=O)=O`, the inhibition is reported as active: 120%. In the case of `CCCNC(=O)[C@@H]1[C@@H](CO)[C@@H]2Cn3c(ccc(-c4ccccc4)c3=O)[C@@H]2N1C(=O)C1CCC1`, the inhibition is reported as active: 102%. With `C[C@H]1CN([C@@H](C)CO)C(=O)c2cccc(NC(=O)Nc3ccc(C(F)(F)F)cc3)c2O[C@@H]1CN(C)Cc1ccc(Cl)c(Cl)c1` the inhibition was inconclusive: 105%. With `O=C(Nc1ccccc1)N1C[C@@H]2[C@H](c3ccccc31)[C@@H](CO)N2CC1CCCC1` the inhibition was inactive: -18.6%. For `C[C@@H]1CN([C@@H](C)CO)S(=O)(=O)c2ccc(C#CCN(C)C)cc2O[C@H]1CN(C)C(=O)CC1CC1`, the inhibition was inconclusive: 101%. In the case of `CCCN(C)C[C@@H]1Oc2cc(C#Cc3ccc(OC)cc3)ccc2S(=O)(=O)N([C@@H](C)CO)C[C@@H]1C`, the inhibition is reported as inconclusive: 117%. In the case of `CC(C)C#Cc1ccc([C@@H]2[C@H](CO)N3CCCCN(C(=O)NC(C)C)C[C@@H]23)cc1`, the inhibition is reported as active: 103%. For `O=C(C[C@H]1C=C[C@H](NS(=O)(=O)c2ccc(F)cc2)[C@H](CO)O1)N1CCC(Cc2ccccc2)CC1`, the inhibition was inconclusive: 99%. For `COCCN(C[C@@H]1N[C@@H](CO)[C@H]1c1ccc(-c2cccc(F)c2)cc1)C(C)=O`, the inhibition was inconclusive: 98.1%. In the case of `C[C@H](CO)N1C[C@H](C)[C@@H](CN(C)S(=O)(=O)c2ccc(Cl)cc2)Oc2c(NC(=O)Nc3ccc(C(F)(F)F)cc3)cccc2C1=O`, the inhibition is reported as inconclusive: 100%. With `COc1ccc(S(=O)(=O)N(C)C[C@H]2Oc3c(NC(=O)C4CC4)cccc3C(=O)N([C@H](C)CO)C[C@H]2C)cc1` the inhibition was inactive: -3.26%. With `C[C@H](CO)N1C[C@H](C)[C@H](CN(C)S(=O)(=O)c2cccc(F)c2)Oc2ncc(C#Cc3ccc(C(F)(F)F)cc3)cc2C1=O` the inhibition was inconclusive: 105%. In the case of `C[C@@H]1CN([C@H](C)CO)C(=O)CCCn2cc(nn2)CO[C@@H]1CN(C)C(=O)CCC(F)(F)F`, the inhibition is reported as inconclusive: 107%. In the case of `Cc1ccc(S(=O)(=O)N(C)C[C@@H]2OCCCC[C@H](C)Oc3ccc(NC(=O)NC4CCCCC4)cc3C(=O)N([C@H](C)CO)C[C@H]2C)cc1`, the inhibition is reported as inactive: 90.2%. In the case of `Cc1ccc(S(=O)(=O)Nc2ccc3c(c2)C(=O)N([C@@H](C)CO)C[C@@H](C)[C@@H](CN(C)Cc2ccc(Cl)c(Cl)c2)O3)cc1`, the inhibition is reported as active: 119%. With `CC(C)NC(=O)N1[C@H](CO)[C@@H](c2ccc(C#CC3CC3)cc2)[C@@H]1C#N` the inhibition was inconclusive: 97.8%. In the case of `C[C@@H](NC(=O)C[C@H]1CC[C@H]2[C@@H](COC[C@@H](O)CN2Cc2ccc(C(F)(F)F)cc2)O1)c1ccccc1`, the inhibition is reported as inconclusive: 106%. With `C/C=C/c1ccc([C@@H]2[C@@H](CO)N3CCCCN(S(=O)(=O)c4cccc(C)c4)C[C@H]23)cc1` the inhibition was inconclusive: 102%. With `COc1ccc(S(=O)(=O)N(C)C[C@H]2OCCCC[C@H](C)Oc3ccc(NC(=O)Nc4ccc(F)cc4)cc3C(=O)N([C@H](C)CO)C[C@@H]2C)cc1` the inhibition was inconclusive: 112%. With `CN(C)CC(=O)N1[C@H](C#N)[C@@H](c2ccc(C#CC3CCCC3)cc2)[C@@H]1CO` the inhibition was inconclusive: 95.9%. With `CC(C)NC(=O)N1[C@H](C#N)[C@@H](c2ccc(C#CC3CC3)cc2)[C@@H]1CO` the inhibition was inconclusive: 97.7%. In the case of `COc1ccc(-c2ccc3c(c2)[C@H]2[C@H](CCN2C(=O)c2cnccn2)[C@H](CO)N3)cc1`, the inhibition is reported as active: 108%. In the case of `CO[C@H]1CN(C)C(=O)c2cc(C#N)ccc2OC[C@H]2O[C@H](CC[C@H]2OC)CCN(C)C(=O)[C@@H]1C`, the inhibition is reported as inactive: -53.2%. For `O=C(C[C@H]1CC[C@@H]2[C@H](COC[C@@H](O)CN2C(=O)Nc2ccc(Cl)cc2)O1)NCCc1ccncc1`, the inhibition was active: 106%. In the case of `C[C@@H]1CN([C@@H](C)CO)S(=O)(=O)c2ccc(Br)cc2O[C@H]1CN(C)S(=O)(=O)c1ccc(F)cc1`, the inhibition is reported as active: 100%. For `C[C@@H]1CN([C@@H](C)CO)S(=O)(=O)c2ccc(C#CC3CC3)cc2O[C@H]1CN(C)Cc1ccccn1`, the inhibition was inconclusive: 95.1%. For `CN1c2ccc(-c3ccccc3)cc2[C@H]2[C@H](CCN2C(=O)Cc2cccnc2)[C@H]1CO`, the inhibition was inconclusive: 96.2%.
